# Measurements: PMC4336329 (PLoS ONE, 2015)
# Screen size: about 310,000 compounds; about 14,000 (4.5%) showed an effect of 50% or more. The effect is printed as a negative number. This is one part of the list.
# Target: human ether-à-go-go-related gene (hERG) potassium channel (human, UniProt Q12809)
# Assay: primary screen, population patch clamp on CHO cells stably expressing hERG
# 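Also: peak tail current of the secondary pulse compared with the same well before compound.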
# human ether-à-go-go-related gene (hERG) potassium channel, sequence (Q12809 whole entry, looked up): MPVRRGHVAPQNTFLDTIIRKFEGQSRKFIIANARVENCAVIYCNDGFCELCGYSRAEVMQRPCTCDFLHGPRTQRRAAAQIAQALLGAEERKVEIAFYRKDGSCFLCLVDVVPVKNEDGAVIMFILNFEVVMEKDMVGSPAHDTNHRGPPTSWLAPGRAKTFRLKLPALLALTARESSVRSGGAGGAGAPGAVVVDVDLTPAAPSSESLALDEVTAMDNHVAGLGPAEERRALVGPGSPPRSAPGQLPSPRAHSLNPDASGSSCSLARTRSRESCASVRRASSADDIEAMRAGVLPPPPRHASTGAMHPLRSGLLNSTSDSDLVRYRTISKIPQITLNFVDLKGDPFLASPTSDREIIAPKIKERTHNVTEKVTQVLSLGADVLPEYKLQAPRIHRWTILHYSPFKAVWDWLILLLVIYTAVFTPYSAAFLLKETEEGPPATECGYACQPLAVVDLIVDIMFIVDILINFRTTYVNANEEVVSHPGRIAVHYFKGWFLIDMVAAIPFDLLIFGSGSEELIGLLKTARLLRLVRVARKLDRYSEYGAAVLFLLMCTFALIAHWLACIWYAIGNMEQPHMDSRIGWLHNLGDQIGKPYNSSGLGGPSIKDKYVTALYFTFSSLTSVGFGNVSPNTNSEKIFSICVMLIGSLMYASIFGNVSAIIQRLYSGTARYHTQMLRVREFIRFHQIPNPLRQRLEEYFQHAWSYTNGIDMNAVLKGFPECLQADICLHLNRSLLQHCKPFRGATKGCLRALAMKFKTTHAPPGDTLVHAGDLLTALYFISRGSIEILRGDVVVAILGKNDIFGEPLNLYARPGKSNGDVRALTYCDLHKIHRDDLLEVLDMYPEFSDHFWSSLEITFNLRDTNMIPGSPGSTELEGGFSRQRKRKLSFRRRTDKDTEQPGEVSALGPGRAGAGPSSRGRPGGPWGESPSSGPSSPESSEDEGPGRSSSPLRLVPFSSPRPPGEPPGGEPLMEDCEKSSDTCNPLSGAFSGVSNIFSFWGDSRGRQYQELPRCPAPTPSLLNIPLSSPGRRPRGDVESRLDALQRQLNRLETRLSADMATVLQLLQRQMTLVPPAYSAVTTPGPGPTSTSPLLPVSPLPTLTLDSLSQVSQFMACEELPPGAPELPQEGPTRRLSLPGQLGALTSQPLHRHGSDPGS
row,Compound,"hERG current change (%, negative = inhibition) at 10uM [%]"
1,Nc1nc2c(Cl)ccc(Cl)c2s1,10.7
2,Cn1nnc(NC(=O)CSc2ncn[nH]2)n1,7.02
3,O=C(NCc1nnc(SCC(=O)N2CCCCC2)o1)c1c(F)cccc1F,14.5
4,COc1ccc(S(=O)(=O)CCC(=O)NC2CCCCC2)cc1,14.3
5,O=C(NC12CC3CC(CC(C3)C1)C2)N1CCN(C(=O)c2ccco2)CC1,9.56
6,CCCCn1c(O)c(N=Nc2ccccc2O)c2ccccc21,7.16
7,C#CCSc1nc(-c2ccccc2)cc(C(F)(F)F)c1C#N,7.12
8,COc1ccc(/C=C/C(=O)NC(=S)Nc2ccc(S(N)(=O)=O)cc2)cc1,3.93
9,CCCCOc1ccc(C(=O)NCC(=O)NC2CCCCC2)cc1,15.5
10,CC1CN(/C=C/C=O)C(C)CC1OC(=O)c1ccccc1 (centres unmarked),4.7
11,Cc1ccc(O)c(NC(=O)CSc2n[nH]c(-c3ccccc3)n2)c1,-27.6
12,COc1ccccc1-n1cnc(N)c1C(=O)c1ccccc1,-9.25
13,COc1cccc(NC(=O)c2ccccc2-c2nc(-c3ccc(Cl)cc3)no2)c1,-5.16
14,O=C(NCCCN1CCOCC1)c1ccc2c(=O)n(Cc3cccc(Br)c3)c(=S)[nH]c2c1,13.1
15,CCOC(=O)c1ccc(NC(=O)CCc2nnc3ccc(N4CCCC4)nn23)cc1,5.84
16,CCNC(=O)CC1C(=O)N(C)C(=S)N1NC(=O)c1ccc(Cl)cc1 (centres unmarked),-6.31
17,O=C(CSc1nc(C(F)(F)F)cc(=O)[nH]1)NCC1CCCO1 (centres unmarked),17.1
18,COc1ccc(CCN2CNc3c(c(=O)n(C)c(=O)n3C)C2)cc1,-17.5
19,CCC(=O)Nc1nnc(SCC(=O)NCC2CCCO2)s1 (centres unmarked),-2.9
20,COc1ccc(CCn2c(-c3ccco3)nc3ccccc3c2=O)cc1OC,-47.4
21,O=c1c2ccccc2nc2sc3ccccc3n12,9.94
22,CC1CCN(C(C(=O)NC2CCCCC2)c2cc3c(cc2[N+](=O)[O-])OCO3)CC1 (centres unmarked),-32.3
23,CC1CCCCN1C(=O)CCC(=O)Nc1nnc(C2CCCCC2)s1 (centres unmarked),-3.14

row,Compound,"hERG current change (%, negative = inhibition) at 10uM [%]"
1,CC(C)Cc1cc(C(=O)N(C)C2CCCN(Cc3ccccc3F)C2)n(C)n1 (centres unmarked),1.93
2,COc1cc(OC)cc(C(=O)N2CCN(C3CCCCC3)CC2)c1.O=C(O)C(=O)O,-23.4
3,O=C(CSC1=Nc2ccccc2C2=NC(CC(=O)NCc3ccco3)C(=O)N12)NCc1ccco1 (centres unmarked),7.61
4,O=C(NCC1COc2ccccc2O1)c1ccc(NC(=O)C2CCCO2)cc1 (centres unmarked),-20.1
5,COc1cc(C(=O)Nc2ccc(Cl)c([N+](=O)[O-])c2)cc(OC)c1OC,13.9
6,CCOC(=O)C1CCCN(Cc2ccccc2F)C1 (centres unmarked),-6.84
7,O=C(O)CN=C1CC(c2ccccc2)CC(=O)/C1=C(/O)CCCN1C(=O)c2ccccc2C1=O (centres unmarked),1.09
8,Fc1cc(Cl)ccc1NC(=S)NCCN1CCOCC1,13.1
9,O=c1[nH]c(/C=C/c2cccc(Br)c2)nc2ccccc12,11.8
10,CC1(C)Cc2c(c(-c3ccccc3Cl)[nH]c(=O)c2C#N)CO1,14.8
11,CCOc1ccc(S(=O)(=O)N(C)c2ccc(OCC(=O)OCc3c(C)noc3C)cc2)cc1,-4.37
12,COc1ccc(C(CC(=O)NC(C)c2ccc(-c3ccccc3)cc2)NC(C)=O)cc1 (centres unmarked),-18.5
13,N#C/C(=C/c1ccc(N2CCOCC2)o1)c1ccc(Br)cc1,21
14,C=CCn1c(CNC(=O)c2ccco2)nnc1SCC(=O)N1c2ccccc2Sc2ccccc21,-16.4
15,O=C1CC(N2CCC(Cc3ccccc3)CC2)C(=O)N1CCc1ccccc1 (centres unmarked),11.6
16,COc1ccccc1N1CCN(C(=O)c2ccccc2Oc2ccccc2)CC1,-25.7
17,CCOc1cc(/C=C2/NC(=O)N(CC(=O)Nc3cccc(C)c3)C2=O)ccc1OC,1
18,CCOC(=O)Cc1c(C)nc2c(C#N)c[nH]n2c1=O,1.38
19,FC(F)Oc1ccc(NC(=S)N2CCc3ccccc32)cc1,5.86
20,CCC(C)[C@H](NC(=O)c1cn(CC)c2cc3c(cc2c1=O)OCO3)C(=O)NCCCn1ccnc1 (some centres unmarked),15.4
21,NC(=O)c1ccccc1NC(=O)CN1CCCCCC1,11.1
22,Cc1nnc2ccc(-c3cccc(NC(=O)c4ccc(Br)o4)c3)nn12,-75.8
23,Cl.N[C@@H](CO)c1nnc([C@H](CC(=O)O)NC(=O)C2CCNCC2)o1,16.7

row,Compound,"hERG current change (%, negative = inhibition) at 10uM [%]"
1,CC1CCN(C(=O)CSc2nc3ccccc3s2)CC1,-8.39
2,Cc1nc(-c2ccc(S(=O)(=O)Nc3ccc(Br)cc3F)cc2)co1,11.6
3,COc1ccc(C(C)=O)cc1CSc1nncn1C,8.54
4,COCCNC(=O)c1cc2cc3ccc(OC)cc3nc2o1,12.8
5,COC(=O)c1c(C)[nH]c(C=O)c1-c1ccccc1,10.3
6,O=C(O)CCCn1cc(NC(=O)c2ccco2)cn1,26.7
7,Nc1cccc(C(=O)OCC(=O)NC2CCCc3ccccc32)c1 (centres unmarked),17.1
8,COc1ccccc1NC(=O)Cc1nnc(SCC(=O)NC2CCCCC2C)n1C (centres unmarked),18.5
9,O=C(NCC1CCN(Cc2ccc(F)cc2)CC1)C1CCCN(c2ncnc3c2nc2n3CCCCC2)C1 (centres unmarked),-39.6
10,CCCC(C)NC(C)C(=O)NC1CCCC1 (centres unmarked),17.3
11,O=C(c1sc2cc([N+](=O)[O-])ccc2c1Cl)N1CCCCC1,-27.3
12,Brc1cc2c(cc1/C=N/Nc1nc(N3CCCC3)nc(N3CCOCC3)n1)OCO2,-51.3
13,COc1ccc(O)c(C(=O)c2cnc3c(c2)c(C)nn3CCO)c1,-1.94
14,COc1ccc(CCNS(=O)(=O)c2ccc(S(=O)(=O)N3CCCC3)cc2)cc1OC,-6.61
15,CCOc1ccc(NC(=O)c2ccc3[nH]c(=O)c(=O)[nH]c3c2)cc1,16.8
16,O=C(/C=C/c1ccc(OCCCF)cc1)NCc1ccc(Cl)cc1,10.5
17,CSc1c(C#N)c(N)nc2sc(C(=O)c3ccccc3)c(N)c12,7.35
18,CC(C)(C)C(=O)Nc1nnc(CCc2ccccc2)s1,-13.5
19,Nc1nnc(SCC(=O)Nc2cc(F)ccc2F)s1,7.81
20,N#CCCn1cc(/C=N/NC(=O)c2ccncc2)c(-c2ccc(F)cc2)n1,5.2
21,CCOc1ccc(C2=Nn3c(nnc3-c3ccco3)SC2)cc1,-10.7
22,COc1cc(CN2CCC(C(=O)NCC(C)(C)CN(C)C)CC2)ccc1OCc1ccccc1.O=C(O)C(=O)O,13.6
23,Cc1c(Cl)cccc1NC(=S)NN,10.2

row,Compound,"hERG current change (%, negative = inhibition) at 10uM [%]"
1,CC(C)Cc1nc(SCC(=O)Nc2nnc(CC(C)C)s2)n[nH]1,-10.8
2,O=C(CO/N=C/c1c(Cl)cccc1Cl)NNC(=O)c1cccc(Cl)c1,7.18
3,O=S(=O)(c1ccc(F)cc1)N1CCN(c2ccc(-c3ccccc3)nn2)CC1,1.27
4,CC1C(=NO)C(C)C(c2ccccc2)NC1c1ccccc1 (centres unmarked),-16.6
5,O=C1NC(Nc2nccs2)(C(F)(F)F)C(=O)N1CCc1ccccc1 (centres unmarked),3.44
6,CCCn1c(N)c(C(=O)CSc2nnc(-c3cccnc3)n2-c2ccc(C)cc2C)c(=O)[nH]c1=O,0.586
7,Nc1n[nH]c(CCCO)n1,22.9
8,Cc1ccc(C(=O)O)cc1NC(=O)c1ccc2c(c1)C(=O)N(c1ccc([N+](=O)[O-])cc1)C2=O,20.3
9,Cc1noc(C)c1CSc1nc2sc(C)c(C)c2c(=O)n1-c1ccccc1,22.6
10,NC(=O)Cn1cc(C(=O)C(=O)N2CCOCC2)c2ccccc21,1.6
11,O=C(CN1CCN(c2ccccc2)CC1)Nc1ccccc1Sc1ccccc1,9.55
12,CC(O)CNc1nc2c(c(=O)n(Cc3ccc(Cl)cc3)c(=O)n2C)n1C (centres unmarked),-7.54
13,CC(=O)/C(=N\Nc1ccc(Cl)cc1Cl)Sc1nnc(-c2ccccc2)n1-c1ccccc1,13
14,CCN(CC(=O)Nc1ccc(NC(C)=O)cc1)C(=O)c1ccccc1SCc1c(C)noc1C,2.73
15,COc1ccc(OC)c(CN2CCN(Cc3cc(=O)oc4cc(O)ccc34)CC2)c1,-74.8
16,OCC[C@H]1C[C@@H](O)[C@H](O)[C@]2(OCCc3ccccc32)O1,-0.605
17,O=C(OCc1ccccc1)N1CCCC1/C=C/CN1CCOCC1 (centres unmarked),-1.77
18,CN(C(=O)/C=C/c1ccco1)c1ccccc1C(=O)O,4.96
19,CCOC(=O)C1CCCN(c2nc3ccccc3nc2C(C#N)C(=O)NCc2ccccc2)C1 (centres unmarked),5.21
20,CCc1noc(C)c1C(=O)Nc1ccc(Cl)c(S(=O)(=O)N2CCCCC2)c1,-71.2
